Publication PMC4336329 (PLoS ONE, 2015)
About 2,200 (0.71%) of roughly 310,000 compounds showed an effect of 50% or more. The effect is printed as a negative number. The list shows a part of the results.

What follows are compounds tested against human ether-à-go-go-related gene (hERG) potassium channel (human, UniProt Q12809) (assay: primary screen, population patch clamp on CHO cells stably expressing hERG).
human ether-à-go-go-related gene (hERG) potassium channel, sequence (Q12809 whole entry, looked up): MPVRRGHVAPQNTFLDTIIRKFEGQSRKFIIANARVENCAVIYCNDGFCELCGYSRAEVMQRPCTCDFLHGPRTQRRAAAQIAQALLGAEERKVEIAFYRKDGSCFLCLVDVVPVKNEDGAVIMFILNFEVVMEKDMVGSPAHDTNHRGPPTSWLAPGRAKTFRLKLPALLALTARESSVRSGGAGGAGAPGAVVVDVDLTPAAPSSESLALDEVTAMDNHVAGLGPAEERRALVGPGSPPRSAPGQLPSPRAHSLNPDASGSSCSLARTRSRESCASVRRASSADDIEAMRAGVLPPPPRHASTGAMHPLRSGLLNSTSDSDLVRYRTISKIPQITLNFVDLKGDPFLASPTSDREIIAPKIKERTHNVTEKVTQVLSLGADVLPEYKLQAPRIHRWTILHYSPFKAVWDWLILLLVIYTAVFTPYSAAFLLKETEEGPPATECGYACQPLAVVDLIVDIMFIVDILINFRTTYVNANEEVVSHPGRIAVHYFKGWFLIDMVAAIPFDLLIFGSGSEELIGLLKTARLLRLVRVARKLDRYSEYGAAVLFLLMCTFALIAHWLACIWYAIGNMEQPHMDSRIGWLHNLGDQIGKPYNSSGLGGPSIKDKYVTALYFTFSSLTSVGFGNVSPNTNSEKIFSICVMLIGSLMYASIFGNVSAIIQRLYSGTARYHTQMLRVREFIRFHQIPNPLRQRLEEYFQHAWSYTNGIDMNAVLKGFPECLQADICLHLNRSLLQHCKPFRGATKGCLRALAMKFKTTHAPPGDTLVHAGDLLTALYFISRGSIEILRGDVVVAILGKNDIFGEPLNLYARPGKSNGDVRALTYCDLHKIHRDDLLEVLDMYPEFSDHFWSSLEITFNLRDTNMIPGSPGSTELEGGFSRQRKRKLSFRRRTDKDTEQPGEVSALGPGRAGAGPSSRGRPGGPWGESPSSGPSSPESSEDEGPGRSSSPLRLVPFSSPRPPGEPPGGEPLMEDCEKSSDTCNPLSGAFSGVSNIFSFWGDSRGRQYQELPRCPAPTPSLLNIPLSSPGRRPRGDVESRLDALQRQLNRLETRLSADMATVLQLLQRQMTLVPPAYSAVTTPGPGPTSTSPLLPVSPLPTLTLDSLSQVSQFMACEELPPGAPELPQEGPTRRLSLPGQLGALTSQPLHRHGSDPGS
`COc1ccc(C(=O)NC(=S)NNC(=O)c2ccc(NC(=O)C(C)C)cc2)cc1` was tested, and the “hERG current change (%, negative = inhibition) at 1uM” value was 18.1%.
With `CC1Cc2ccccc2N1Cc1cc(=O)c(OCC(=O)Nc2ccccc2)co1` (centres unmarked) the “hERG current change (%, negative = inhibition) at 1uM” value was -5.32%.
For `O=C(CN1C(=O)COc2ccc(S(=O)(=O)N3CCCCC3)cc21)NCc1ccccc1Cl`, the “hERG current change (%, negative = inhibition) at 1uM” value was 17.6%.
`CCOC(Cn1c(SCc2cc(C(C)=O)ccc2OC)nc2ccccc2c1=O)OCC` was tested, and the “hERG current change (%, negative = inhibition) at 1uM” value was 2.42%.
With `CN(C)S(=O)(=O)c1cccc(NS(=O)(=O)c2ccc(Cl)s2)c1` the “hERG current change (%, negative = inhibition) at 1uM” value was 13.8%.
`COc1ccc(NC(=O)COC(=O)c2cc(Cl)ccc2O)cc1S(=O)(=O)N1CCCCC1` was tested, and the “hERG current change (%, negative = inhibition) at 1uM” value was 12.7%.
For `CCCCc1nc(SCC(=O)Nc2ncccn2)n[nH]1`, the “hERG current change (%, negative = inhibition) at 1uM” value was 12.3%.
With `O=C(NCC1CCCN(Cc2cccc(F)c2)C1)c1cccc2ccccc12` (centres unmarked) the “hERG current change (%, negative = inhibition) at 1uM” value was 0.314%.
With `CCc1nnc(NC(=O)CSc2nnc(Cc3ccccc3)n2-c2ccccc2)s1` the “hERG current change (%, negative = inhibition) at 1uM” value was 6.68%.
In the case of `COc1cccc(CNC(=O)Cn2ccc3cc(S(=O)(=O)N4CCC(C)CC4)ccc32)c1`, the “hERG current change (%, negative = inhibition) at 1uM” value is reported as -3.85%.
With `O=C(O)CNC1c2ccccc2CSc2ccccc21` (centres unmarked) the “hERG current change (%, negative = inhibition) at 1uM” value was 16.7%.
`CCOc1cc(CNc2ccc(S(N)(=O)=O)cc2)ccc1OCC(=O)NC(C)(C)C` was tested, and the “hERG current change (%, negative = inhibition) at 1uM” value was 13.6%.
In the case of `COc1ccc(CCNC(=O)c2cc(-c3ccc(C)cc3O)n[nH]2)cc1OC`, the “hERG current change (%, negative = inhibition) at 1uM” value is reported as 13.8%.
In the case of `CCOc1ccc2nc(N3C(=O)/C(=C/c4ccccc4)NC3=S)sc2c1`, the “hERG current change (%, negative = inhibition) at 1uM” value is reported as 18.1%.
`O=C(/C=C/c1ccccc1[N+](=O)[O-])c1ccc(F)cc1` was tested, and the “hERG current change (%, negative = inhibition) at 1uM” value was 9.45%.
`COc1ccccc1N(C(=O)CNC(=O)c1ccco1)C(C(=O)NCC1CCCO1)c1ccccc1` (centres unmarked) was tested, and the “hERG current change (%, negative = inhibition) at 1uM” value was 14%.
`CCNc1nc(NCC)n2c(SCC(=O)Nc3ccc(F)cc3[N+](=O)[O-])nnc2n1` was tested, and the “hERG current change (%, negative = inhibition) at 1uM” value was 7.91%.
For `CCc1ccc(CN(C)C(=O)C2CCC(=O)N(CCc3ccc(OC)cc3)C2)nc1` (centres unmarked), the “hERG current change (%, negative = inhibition) at 1uM” value was -57.9%.
With `O=C(CCCOc1ccc(Cl)cc1Cl)N1CCN(c2ccccn2)CC1` the “hERG current change (%, negative = inhibition) at 1uM” value was -4.25%.
`C/C(=N\NC(=O)C1(C)CC1(Br)Br)c1ccc(NC(=O)c2ccc(C)o2)cc1` (centres unmarked) was tested, and the “hERG current change (%, negative = inhibition) at 1uM” value was 12.8%.
`CC(=O)N1CCN(S(=O)(=O)c2cccc(C(=O)Nc3nccs3)c2)CC1` was tested, and the “hERG current change (%, negative = inhibition) at 1uM” value was 9.8%.
For `Nc1ccc(N=Nc2ccccc2)c2ccccc12`, the “hERG current change (%, negative = inhibition) at 1uM” value was 8.38%.
`O=C(Cc1ccc([N+](=O)[O-])cc1)N/N=C/c1cccnc1` was tested, and the “hERG current change (%, negative = inhibition) at 1uM” value was 10.7%.
In the case of `CC(C)c1ccc(-c2nc(N3CCOCC3)[nH]c(=O)c2C#N)cc1`, the “hERG current change (%, negative = inhibition) at 1uM” value is reported as 8%.
For `COCCN(C(=O)COC(=O)CCSc1ccc(F)cc1)c1c(N)n(Cc2ccccc2)c(=O)[nH]c1=O`, the “hERG current change (%, negative = inhibition) at 1uM” value was 9.49%.
In the case of `Cc1ccc(-c2onc3ccc(Br)cc23)cc1`, the “hERG current change (%, negative = inhibition) at 1uM” value is reported as 18.7%.
In the case of `Cc1cc(C)n(-c2ccc(C(=O)Nc3nnc(C)s3)cc2)n1`, the “hERG current change (%, negative = inhibition) at 1uM” value is reported as 5.49%.
`CC(CCc1ccccc1)NC(=O)c1cnc(Cl)c(Cl)c1` (centres unmarked) was tested, and the “hERG current change (%, negative = inhibition) at 1uM” value was 10%.
In the case of `O=C(N/N=C/c1ccc(-c2ccc([N+](=O)[O-])cc2)o1)c1cccnc1`, the “hERG current change (%, negative = inhibition) at 1uM” value is reported as 7.92%.
`COc1ccc(NC(=O)c2cccs2)c([N+](=O)[O-])c1` was tested, and the “hERG current change (%, negative = inhibition) at 1uM” value was 8.13%.
For `CCC(CC)C(=O)Nc1cccc(SC)c1`, the “hERG current change (%, negative = inhibition) at 1uM” value was 15.1%.
`CC(C)CC(NC(=O)/C(=C\c1ccco1)NC(=O)c1ccco1)C(=O)O` (centres unmarked) was tested, and the “hERG current change (%, negative = inhibition) at 1uM” value was 12.3%.
With `O=C(N/N=C/c1ccco1)c1ccc(NC(=O)C2CCCCC2)cc1` the “hERG current change (%, negative = inhibition) at 1uM” value was 13.6%.
For `Nc1nc(SCC(=O)O)[nH]c(=O)c1NC(=O)c1ccccc1F`, the “hERG current change (%, negative = inhibition) at 1uM” value was 15.4%.
`Cc1ccc(C(=O)/C=C/c2ccc(Br)cc2)o1` was tested, and the “hERG current change (%, negative = inhibition) at 1uM” value was -4.08%.
With `COc1cc2c(cc1OC)C(C)N(S(=O)(=O)c1cnc(Cl)c(Cl)c1)CC2` (centres unmarked) the “hERG current change (%, negative = inhibition) at 1uM” value was 10.3%.
`Cn1nc(C(=O)NCc2cccc(F)c2)cc1C(=O)NCc1cccc(F)c1` was tested, and the “hERG current change (%, negative = inhibition) at 1uM” value was -21.4%.
With `O=C(NCC1CCCO1)c1ccc(COc2ccc(F)cc2)o1` (centres unmarked) the “hERG current change (%, negative = inhibition) at 1uM” value was 9.1%.
In the case of `S=C(NCc1ccccc1)N1CCN(C2CCCCC2)CC1`, the “hERG current change (%, negative = inhibition) at 1uM” value is reported as -7.29%.
For `Cc1ccnc(SCC(=O)Nc2oc(-c3ccccc3)c(-c3ccccc3)c2C#N)n1`, the “hERG current change (%, negative = inhibition) at 1uM” value was 8.54%.
For `Cc1ccc(C2c3c(oc4ccccc4c3=O)C(=O)N2c2nnc(C(C)C)s2)o1` (centres unmarked), the “hERG current change (%, negative = inhibition) at 1uM” value was 6.23%.
In the case of `COCCN(CCOC)CC(O)COC(c1ccccc1)c1ccccc1` (centres unmarked), the “hERG current change (%, negative = inhibition) at 1uM” value is reported as -6.95%.
With `CCn1cc(C(=O)N2CCN(Cc3ccc4c(c3)OCO4)CC2)c(=O)c2ccc(C)nc21` the “hERG current change (%, negative = inhibition) at 1uM” value was 4.86%.
With `COc1ccc(Cl)cc1NC(=O)Nc1cnccn1` the “hERG current change (%, negative = inhibition) at 1uM” value was 13.7%.
For `Cc1ccc(S(=O)(=O)N2CCCC(C(=O)NC3=NCCS3)C2)cc1` (centres unmarked), the “hERG current change (%, negative = inhibition) at 1uM” value was 9.2%.
With `CCOC(=O)C1=C(CSc2nc3c(cc2C#N)CN(C)CC3)OC(N)=C(C#N)C1c1ccccc1` (centres unmarked) the “hERG current change (%, negative = inhibition) at 1uM” value was 4.55%.
With `CCOCCCN(C(=O)CNC(=O)c1ccco1)C(C(=O)NC1CCCC1)c1ccccc1C` (centres unmarked) the “hERG current change (%, negative = inhibition) at 1uM” value was 20%.
`CC(C)OCCCNC(=O)C1CCN(S(=O)(=O)N2CCCCC2)CC1` was tested, and the “hERG current change (%, negative = inhibition) at 1uM” value was 12.2%.
`O=C(CCS(=O)(=O)c1ccc(F)cc1)N1CCOCC1` was tested, and the “hERG current change (%, negative = inhibition) at 1uM” value was 4.64%.
`COc1cc(CCC(=O)OCC(=O)N2CCc3ccccc32)cc(OC)c1OC` was tested, and the “hERG current change (%, negative = inhibition) at 1uM” value was 17.3%.
`CCCCn1nnnc1SCC(=O)Nc1ccc2c(c1)OCO2` was tested, and the “hERG current change (%, negative = inhibition) at 1uM” value was 15.8%.
In the case of `CCCN(C(=O)c1cccc(S(=O)(=O)N2CCCc3ccccc32)c1)C1CCS(=O)(=O)C1` (centres unmarked), the “hERG current change (%, negative = inhibition) at 1uM” value is reported as 6.98%.
For `O[C@@H]1COC(Nc2ccc(N=Nc3ccccc3)cc2)C[C@@H]1O` (some centres unmarked), the “hERG current change (%, negative = inhibition) at 1uM” value was 13.3%.
In the case of `O=C(C1CCCO1)N1CCN(S(=O)(=O)c2ccc(Cl)cc2)CC1` (centres unmarked), the “hERG current change (%, negative = inhibition) at 1uM” value is reported as 4.94%.
`O=C(c1ccccc1)c1cccs1` was tested, and the “hERG current change (%, negative = inhibition) at 1uM” value was 10.8%.
In the case of `O/C(=C\c1ccc2ccccc2n1)c1ccncc1`, the “hERG current change (%, negative = inhibition) at 1uM” value is reported as 10.3%.
